Test results: publication PMC4336329 (PLoS ONE, 2015)
About 14,000 (4.5%) of roughly 310,000 compounds showed an effect of 50% or more. The effect is printed as a negative number. The list shows a part of the results.

Target: human ether-à-go-go-related gene (hERG) potassium channel (human, UniProt Q12809)
Test: primary screen, population patch clamp on CHO cells stably expressing hERG
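Note: peak tail current of the secondary pulse compared with the same well before compound.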

human ether-à-go-go-related gene (hERG) potassium channel, sequence (Q12809 whole entry, looked up): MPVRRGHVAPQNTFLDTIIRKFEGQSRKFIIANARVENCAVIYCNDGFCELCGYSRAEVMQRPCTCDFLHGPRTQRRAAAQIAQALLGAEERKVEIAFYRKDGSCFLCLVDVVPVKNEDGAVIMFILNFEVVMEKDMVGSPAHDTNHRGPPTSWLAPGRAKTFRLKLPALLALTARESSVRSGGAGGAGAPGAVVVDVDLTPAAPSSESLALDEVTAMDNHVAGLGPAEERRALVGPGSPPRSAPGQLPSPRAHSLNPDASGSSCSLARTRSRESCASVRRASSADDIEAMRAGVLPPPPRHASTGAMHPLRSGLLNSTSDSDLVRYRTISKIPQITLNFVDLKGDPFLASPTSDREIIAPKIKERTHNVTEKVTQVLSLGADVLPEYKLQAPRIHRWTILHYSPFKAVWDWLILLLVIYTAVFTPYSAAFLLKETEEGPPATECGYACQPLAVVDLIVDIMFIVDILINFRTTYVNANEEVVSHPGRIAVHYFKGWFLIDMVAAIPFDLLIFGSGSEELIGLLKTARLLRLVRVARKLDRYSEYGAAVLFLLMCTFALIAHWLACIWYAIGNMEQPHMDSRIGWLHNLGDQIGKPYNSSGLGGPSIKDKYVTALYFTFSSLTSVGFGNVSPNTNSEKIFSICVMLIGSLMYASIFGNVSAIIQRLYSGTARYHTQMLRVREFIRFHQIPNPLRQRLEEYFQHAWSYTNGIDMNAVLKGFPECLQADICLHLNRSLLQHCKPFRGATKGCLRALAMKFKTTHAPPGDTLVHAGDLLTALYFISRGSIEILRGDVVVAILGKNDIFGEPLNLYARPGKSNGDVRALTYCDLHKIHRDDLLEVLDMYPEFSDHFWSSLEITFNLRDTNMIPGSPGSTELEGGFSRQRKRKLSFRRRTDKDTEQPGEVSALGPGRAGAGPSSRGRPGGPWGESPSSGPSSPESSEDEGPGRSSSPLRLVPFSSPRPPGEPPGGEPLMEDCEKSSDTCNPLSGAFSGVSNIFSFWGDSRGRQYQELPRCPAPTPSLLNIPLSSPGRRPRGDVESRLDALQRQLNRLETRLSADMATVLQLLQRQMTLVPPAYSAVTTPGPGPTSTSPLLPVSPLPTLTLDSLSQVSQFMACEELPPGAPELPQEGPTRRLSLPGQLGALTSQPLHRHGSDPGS

Structure (SMILES) | hERG current change (%, negative = inhibition) at 10uM [%]
O=[N+]([O-])c1cccc(/C=N/n2cnnc2)c1O | 2.93
O=C(O)/C=C\C(=O)O.c1ccc2c(c1)CC1CNCc3cccc(c31)S2 (stereo not drawn) | -49.5
CC(C)(C)NS(=O)(=O)c1ccc(NC(=O)CS(=O)(=O)Cc2ccccc2)cc1 | 10.5
CCNc1nc(Oc2c(Cl)cccc2Cl)cc(C(F)(F)F)n1 | 2.33
O=C(O)CC(C(=O)NC1CCCCC1)C1CCCO1 (stereo not drawn) | -2.25
CC1CCN(c2ccc(N3C(=O)C4CCCCC4C3=O)cc2[N+](=O)[O-])CC1 (stereo not drawn) | 24.5
CC(=O)c1ccc(N2CCN(C(=O)c3cc(-c4ccncc4)nc4ccc(Cl)cc34)CC2)cc1 | -33
CCOC(=O)C1=C(CC)Nc2ccccc2N=C1NC(=O)c1cc(C)on1 | -15.5
Cc1c(C)c2c(OCC(=O)Nc3ccc(CCO)cc3)cc3c(c2oc1=O)CCC(C)(C)O3 | -2.15
COc1cccc(C(=O)OCCCOC(=O)c2cccc(OC)c2OC)c1OC | -1.34
Cc1cnc(C(=O)N2CCCC(N3CCN(c4ccccc4C)CC3)C2)cn1 (stereo not drawn) | 1.27
CCOCCn1c(CN2CCCCC2)nc2c1c(=O)n(C)c(=O)n2C | 14.1
COC(=O)C1C(c2ccccc2)NC(=O)NC1(O)C(F)(F)Cl (stereo not drawn) | -7.77
O=C(O)COc1ccccc1/C=N/NC(=O)c1cc(-c2ccc(Cl)cc2)nc2ccccc12 | 6.35
Cc1ccccc1NC(=O)Cn1nnc(-c2ccc(N3CCOCC3)cc2)n1 | 0.44
O=C(O)C1=C[C@H](C2CC2)C[C@H](OCc2ccc(CO)cc2)O1 | 13.8
C=CCn1c(CCC)nc2ccccc21 | 8.63
C=C(Br)Cn1c(CCC)nc2ccccc21 | -2.23
COC(=O)c1c(-c2ccc(C)cc2)csc1NC(=S)NC(=O)c1cc(OC)cc(OC)c1 | 27.1
CC(CN1CCCC(C(N)=O)C1)c1ccccc1 (stereo not drawn) | 12.5
COc1ccc(-n2c(N)c(C(=O)NCc3ccco3)c3nc4ccccc4nc32)cc1OC | 16.7
COCCn1nnnc1CN(CCc1ccccc1)Cc1cc2cc(OC)ccc2[nH]c1=O | -47.8

Structure (SMILES) | hERG current change (%, negative = inhibition) at 10uM [%]
COc1ccc(OC)c(NC(=O)C2CCN(S(=O)(=O)c3ccc4c(c3)OCCO4)CC2)c1 | 5.03
Cc1cccc(NC(=O)CCCN2C(=O)c3cccc4cccc(c34)C2=O)c1 | -3.34
Cc1nn(-c2ccccc2)c(Cl)c1C(=O)OCC(=O)NCCc1ccccc1 | -32.7
CC(C)CN(C(=O)COc1ccc(Br)cc1C=O)C1CCS(=O)(=O)C1 (stereo not drawn) | -25.4
O=C(NC1CCCC1)C(c1ccncc1)N(Cc1ccccc1)C(=O)Cc1cccs1 (stereo not drawn) | -14.1
O=C(c1cccs1)[C@@H]1[C@@H]2C(=O)N(Cc3ccc4c(c3)OCO4)C(=O)[C@@H]2C2c3ccccc3C=CN21 (stereo partly drawn) | -26.7
O=c1oc2ccccc2c2[nH]ccc12 | 14.5
CC1=CC(C)C2COC(c3ccc[n+](C)c3)C1C2C.[I-] (stereo not drawn) | 14.3
CCOC(=O)Cc1nnc(NC(=O)C(CC)Sc2nncn2C)s1 (stereo not drawn) | 5.89
CCN(CC(=O)Nc1ccc2c(c1)OCCO2)C(=O)CC(NC(C)=O)c1ccccc1 (stereo not drawn) | 18.7
CS(=O)(=O)c1ccc(Cl)c(NC(=O)CCNC(=O)c2ccco2)c1 | 5.42
COc1ccccc1NC(=O)c1cc2ccccc2o/c1=N\O | -4.95
COCCCNC(=O)CN(c1cc(Cl)cc(Cl)c1)S(C)(=O)=O | 3.18
CC1=C(C(=O)N2CCOCC2)C(c2cc(C)ccc2C)NC(=S)N1 (stereo not drawn) | 15
COc1ccc(C2N3CC4(C)CN2CC(C)(C3)C4O)cc1 (stereo not drawn) | 1.98
O=C(O)c1cc(-c2cccc([N+](=O)[O-])c2)n[nH]1 | -0.826
CC1=CC(C)C(COC(N)=O)(COC(N)=O)C(C)C1 (stereo not drawn) | -16.2
O=C(N/N=C/c1c(Cl)cccc1Cl)c1ccccc1F | -0.87
COc1ccc(C(=O)N(C)C2CCN(C)CC2)cc1S(=O)(=O)Nc1cc(Cl)ccc1Cl | -3
CC/C(=N\NC(=O)Cc1ccc(Br)cc1)c1cccs1 | 14.4
Cc1cc(C)cc(NC(=O)C2CCCN(c3nc(C)cc(C)n3)C2)c1 (stereo not drawn) | -0.397
CS(=O)(=O)Cc1ccc(C(=O)NC2CCN(Cc3ccccc3)C2)cc1 (stereo not drawn) | -5.28

Structure (SMILES) | hERG current change (%, negative = inhibition) at 10uM [%]
O=C1/C(=C\Nc2ccc(OC(F)(F)F)cc2)CCN1c1ncccn1 | -8.68
CCOC(=O)C1(O)CC(C)=NN1C(=O)c1cccc(Br)c1 (stereo not drawn) | 25.9
O=C(Nc1ccc2c(c1)OCO2)C1CC(c2ccc(F)cc2)=NO1 (stereo not drawn) | 13.4
COc1ccc(CNC(=O)C(OC(=O)c2ccco2)c2ccc(OC)cc2)cc1 (stereo not drawn) | 8.14
Cc1cccc(N=C2NC(=O)/C(=C3/C(=O)N(C)c4ccccc43)S2)c1C | -3.46
CS(=O)(=O)ON=C1CCN(S(=O)(=O)c2ccccc2)CC1 | 12
CCN(CC(=O)NCc1ccc2c(c1)OCO2)S(=O)(=O)c1ccc(F)cc1 | -28.8
Cc1cccc(NC(=O)c2ccc(-c3ccccc3[N+](=O)[O-])o2)c1 | -55.2
CCOc1ccc(/C=N/NC(=O)Nc2ccccc2)cc1 | 11.4
COc1cc2c3c(c1)/C(=C1/SC(=S)NC1=O)C(=O)N3C(C)(C)C=C2C | 2.71
O=C(COC(=O)CNS(=O)(=O)c1c(F)cccc1F)NC(=O)NC1CCCCC1 | -14.9
COc1ccc(CNc2cc(NCCCO)c([N+](=O)[O-])c3nonc23)cc1 | -1.3
Cc1cccc(C)c1NC(=O)[C@@]1(CC(=O)O)CC(/C=C/c2ccccc2)=NO1 | 19.2
CC(C)(C)C(=O)C(Cl)C(=O)Nc1ccccc1 (stereo not drawn) | -8.23
COCCNC(=O)C(c1ccc(F)cc1)N(C(=O)CCC(=O)Nc1nccs1)c1cccc(C)c1 (stereo not drawn) | 6.78
Cc1ccccc1NC(=S)NC(C)CCc1ccccc1 (stereo not drawn) | -4.81
CC1CN(C(=O)c2cc3cc(Br)ccc3[nH]2)CC(C)O1 (stereo not drawn) | -8.13
O=C(c1ccc(=O)oc1)N1CCN(c2ccc(F)cc2)CC1 | -25.4
O=C(Nc1ccc(Cl)c(Cl)c1)Oc1ccc(NC(=O)c2ccco2)cc1 | 20.5
COC(=O)CCC(=O)Nc1sc2c(c1C#N)CCCC2 | 3.74
C#CCOCCOCCOCCNc1nc(N2CCN(C(=O)Cn3cc(CCC[NH+]=C(N)N)nn3)CC2)nc(N2CCN(C(=O)[C@H](C)n3cc(CCC[NH+]=C(N)N)nn3)CC2)n1.[Cl-] | 6.62
N#Cc1ccc(Oc2ccc(NC(=O)C3CC=CCC3C(=O)O)cc2)cc1 (stereo not drawn) | 12.9

Structure (SMILES) | hERG current change (%, negative = inhibition) at 10uM [%]
Cc1ccc(CNC(=O)C2CC2c2ccccc2)cc1 (stereo not drawn) | 5.43
COC(=O)c1c(-c2ccc(Br)cc2)noc1N | 10.1
O=c1c2ccccc2oc2cc(NCCCn3ccnc3)ccc12 | -60.9
N#CCC(=O)N/N=C1\CCCCC1C1CCCCC1 (stereo not drawn) | 7.35
Cc1ccc(CC2CC(=O)N(Cc3ccco3)C2=O)cc1 (stereo not drawn) | 1.58
COc1ccc(N2CCN(C(=O)c3cc(=O)c4cc(C)cc(C)c4o3)CC2)cc1 | -11.6
Cc1cc(C)c(S(=O)(=O)NCCC2CCCN2C)c(C)c1 (stereo not drawn) | -2.46
O=C(Cc1cccc(NC(=O)C2CCCN(C(=O)C3CC3)C2)c1)Nc1cccc(C(=O)N2CCCC2)c1 (stereo not drawn) | 7.83
O=[N+]([O-])c1cccc(CN2CCN(c3cccc4[nH]ccc34)CC2)c1 | -7.67
COc1ccc(OCC2CCNCC2)cc1.Cl | -3.56
C=CCOC(=O)CCP(=O)(CCC(=O)OCC=C)c1ccccc1 | -16.5
Nc1c(-c2cccc(Cl)c2)cnc2c(-c3ccccc3)cnn12 | 13.9
CC12CCC(C(=O)N(NC(=O)c3cccnc3)C1=O)C2(C)C (stereo not drawn) | 33
CCCCNC(=O)CCC(=O)NNc1nc2ccccc2c2nc(C)nn12 | 21.3
NS(=O)(=O)c1cc(C(=O)OCC(=O)NC2CC2)ccc1Cl | -9.5
Cc1ccc(/C(O)=C2/C(=O)C(=O)N(CCN3CCOCC3)C2c2cccs2)cc1 (stereo not drawn) | 8.67
COc1ccc(C(=O)Nc2ccnn2C2CCN(CC3CC=CCC3)CC2)cc1 (stereo not drawn) | -37.4
CN(C(=O)COC(=O)/C=C/c1cccs1)c1c(N)n(Cc2ccccc2)c(=O)[nH]c1=O | -10.2
O=C(CCCn1cc([N+](=O)[O-])cn1)Nc1cccnc1 | -0.81
c1ccc(-c2nc3ccccn3c2-c2ccccc2)cc1 | -17.4
CCOC(=O)c1ccc(NC(=O)c2nc[nH]c2C(=O)N2CCc3ccccc3C2)cc1 | 0.122
